Test results: PMC12376573
No constants are given. Whether binding was seen depends on the method and setting. In cells and extracts the contact can be indirect. Some results given as binding are weak or reduced against the parent protein; the word gives no strength. For part of these data: Tags and fused reporters may be left off the sequences shown.

Amino acid sequences for entries named in this document (tags omitted). A change or cut given only in a name is not applied to a line headed by its entry. Residues count along the entry.
UniProt Q14145: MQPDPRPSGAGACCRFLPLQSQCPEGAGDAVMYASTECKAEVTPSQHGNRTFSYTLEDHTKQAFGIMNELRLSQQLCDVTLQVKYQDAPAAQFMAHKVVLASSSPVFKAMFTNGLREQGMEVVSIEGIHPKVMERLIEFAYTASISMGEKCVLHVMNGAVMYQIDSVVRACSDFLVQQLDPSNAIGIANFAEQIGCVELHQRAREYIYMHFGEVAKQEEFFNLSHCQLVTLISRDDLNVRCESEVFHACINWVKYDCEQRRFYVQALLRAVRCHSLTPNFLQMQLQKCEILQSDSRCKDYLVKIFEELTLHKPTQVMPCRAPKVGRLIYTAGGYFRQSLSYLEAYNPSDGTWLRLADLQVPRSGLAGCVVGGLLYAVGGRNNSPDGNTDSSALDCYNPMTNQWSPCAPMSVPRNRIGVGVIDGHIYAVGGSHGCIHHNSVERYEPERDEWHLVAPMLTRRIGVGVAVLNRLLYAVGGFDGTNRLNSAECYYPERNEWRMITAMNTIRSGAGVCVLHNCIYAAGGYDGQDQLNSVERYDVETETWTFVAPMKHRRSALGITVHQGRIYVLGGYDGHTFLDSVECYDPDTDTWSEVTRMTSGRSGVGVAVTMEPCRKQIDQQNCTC
His‐KEAP1 truncation, amino acids 1–609: residues 1-609 of Q14145
His‐KEAP1 truncation, amino acids 1–321: residues 1-321 of Q14145
His‐KEAP1 truncation, amino acids 1–179: residues 1-179 of Q14145
His‐KEAP1 truncation, amino acids 1–66: residues 1-66 of Q14145
His‐KEAP1 truncation, amino acids 322–624: residues 322-624 of Q14145
UniProt Q99755: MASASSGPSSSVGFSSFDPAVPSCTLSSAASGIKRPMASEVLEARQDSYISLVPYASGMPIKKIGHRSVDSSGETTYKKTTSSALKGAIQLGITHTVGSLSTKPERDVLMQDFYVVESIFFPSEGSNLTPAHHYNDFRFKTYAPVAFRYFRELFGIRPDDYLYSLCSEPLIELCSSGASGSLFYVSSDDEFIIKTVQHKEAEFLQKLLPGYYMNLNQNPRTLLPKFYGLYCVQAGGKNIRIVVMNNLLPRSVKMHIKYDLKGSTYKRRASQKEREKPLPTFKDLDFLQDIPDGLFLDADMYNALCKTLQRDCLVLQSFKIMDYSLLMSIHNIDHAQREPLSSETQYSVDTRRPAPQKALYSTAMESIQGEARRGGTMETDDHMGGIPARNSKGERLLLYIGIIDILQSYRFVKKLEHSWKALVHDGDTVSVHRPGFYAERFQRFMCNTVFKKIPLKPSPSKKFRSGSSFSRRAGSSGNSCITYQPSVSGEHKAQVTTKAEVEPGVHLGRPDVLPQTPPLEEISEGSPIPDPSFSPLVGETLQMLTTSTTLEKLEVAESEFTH

Key:
[1] = target: T1, Myc‐NRF2 (UniProt Q16236); test: co-IP; HEK293T cells co‐transfected with tagged plasmids; lysate, antibodies overnight at 4 °C, Protein A/G magnetic beads
T1 sequence: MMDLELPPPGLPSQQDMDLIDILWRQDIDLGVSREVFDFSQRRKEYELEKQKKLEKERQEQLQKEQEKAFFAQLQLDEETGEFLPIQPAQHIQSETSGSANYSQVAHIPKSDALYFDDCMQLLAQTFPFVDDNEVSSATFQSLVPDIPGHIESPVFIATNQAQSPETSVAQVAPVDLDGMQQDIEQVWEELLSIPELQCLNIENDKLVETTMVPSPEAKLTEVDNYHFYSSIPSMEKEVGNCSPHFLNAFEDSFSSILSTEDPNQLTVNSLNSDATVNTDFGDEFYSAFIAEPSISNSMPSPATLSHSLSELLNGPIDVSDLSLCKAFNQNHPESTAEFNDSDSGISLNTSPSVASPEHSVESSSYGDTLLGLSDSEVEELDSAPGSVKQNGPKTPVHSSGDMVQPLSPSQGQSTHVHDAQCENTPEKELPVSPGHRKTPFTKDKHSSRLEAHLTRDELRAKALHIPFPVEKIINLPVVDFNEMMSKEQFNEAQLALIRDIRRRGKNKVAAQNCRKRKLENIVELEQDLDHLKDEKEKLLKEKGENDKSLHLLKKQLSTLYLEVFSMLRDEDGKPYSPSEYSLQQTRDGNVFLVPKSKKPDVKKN

[2] = target: His‐KEAP1 (wild type, full length) (UniProt Q14145); test: as above
[3] = target: His‐KEAP1 truncation, amino acids 322–624 (UniProt Q14145); test: as above
[4] = target: His‐KEAP1 truncation, amino acids 1–179 (UniProt Q14145); test: as above
[5] = target: His‐KEAP1 truncation, amino acids 1–321 (UniProt Q14145); test: as above
[6] = target: His‐KEAP1 truncation, amino acids 1–66 (UniProt Q14145); test: as above
[7] = target: His‐KEAP1 truncation, amino acids 1–609 (UniProt Q14145); test: as above
[8] = target: Kelch‐like ECH‐associated protein 1 (KEAP1), endogenous (human (endogenous in PLC/PRF/5)) (UniProt Q14145); test: co-IP; endogenous proteins in PLC/PRF/5 cell lysate; IgG as control; Protein A/G magnetic beads, overnight at 4 °C

Row | binding [1] | binding [2] | binding [3] | binding [4] | binding [5] | binding [6] | binding [7] | binding [8] | Substance
1 | no binding | binds | binds | no binding | no binding | no binding | binds | – | Flag‐PIP5K1A (full‐length Flag‐tagged PIP5K1A) (from UniProt Q99755 1-562)
2 | – | binds | – | – | – | – | – | – | Flag‐PIP5K1A truncation, amino acids 81–449 (phosphatidylinositol‐phosphate kinase domain, PIPK domain) (from UniProt Q99755 81-449) (domain or fragment)
3 | – | – | – | – | – | – | – | binds | phosphatidylinositol 4‐phosphate 5‐kinase 1 alpha (PIP5K1A), endogenous (from UniProt Q99755 1-562)
